Data published in article PMC4336329 (PLoS ONE, 2015).
Hit rate of the full screen: of about 310,000 compounds, about 14,000 (4.5%) showed an effect of 50% or more. The effect is printed as a negative number. This is one part of the list.

What follows are molecules tested against human ether-à-go-go-related gene (hERG) potassium channel (human, UniProt Q12809) (assay: primary screen, population patch clamp on CHO cells stably expressing hERG).
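Also: peak tail current of the secondary pulse compared with the same well before compound.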

Chain of human ether-à-go-go-related gene (hERG) potassium channel (Q12809 whole entry, looked up): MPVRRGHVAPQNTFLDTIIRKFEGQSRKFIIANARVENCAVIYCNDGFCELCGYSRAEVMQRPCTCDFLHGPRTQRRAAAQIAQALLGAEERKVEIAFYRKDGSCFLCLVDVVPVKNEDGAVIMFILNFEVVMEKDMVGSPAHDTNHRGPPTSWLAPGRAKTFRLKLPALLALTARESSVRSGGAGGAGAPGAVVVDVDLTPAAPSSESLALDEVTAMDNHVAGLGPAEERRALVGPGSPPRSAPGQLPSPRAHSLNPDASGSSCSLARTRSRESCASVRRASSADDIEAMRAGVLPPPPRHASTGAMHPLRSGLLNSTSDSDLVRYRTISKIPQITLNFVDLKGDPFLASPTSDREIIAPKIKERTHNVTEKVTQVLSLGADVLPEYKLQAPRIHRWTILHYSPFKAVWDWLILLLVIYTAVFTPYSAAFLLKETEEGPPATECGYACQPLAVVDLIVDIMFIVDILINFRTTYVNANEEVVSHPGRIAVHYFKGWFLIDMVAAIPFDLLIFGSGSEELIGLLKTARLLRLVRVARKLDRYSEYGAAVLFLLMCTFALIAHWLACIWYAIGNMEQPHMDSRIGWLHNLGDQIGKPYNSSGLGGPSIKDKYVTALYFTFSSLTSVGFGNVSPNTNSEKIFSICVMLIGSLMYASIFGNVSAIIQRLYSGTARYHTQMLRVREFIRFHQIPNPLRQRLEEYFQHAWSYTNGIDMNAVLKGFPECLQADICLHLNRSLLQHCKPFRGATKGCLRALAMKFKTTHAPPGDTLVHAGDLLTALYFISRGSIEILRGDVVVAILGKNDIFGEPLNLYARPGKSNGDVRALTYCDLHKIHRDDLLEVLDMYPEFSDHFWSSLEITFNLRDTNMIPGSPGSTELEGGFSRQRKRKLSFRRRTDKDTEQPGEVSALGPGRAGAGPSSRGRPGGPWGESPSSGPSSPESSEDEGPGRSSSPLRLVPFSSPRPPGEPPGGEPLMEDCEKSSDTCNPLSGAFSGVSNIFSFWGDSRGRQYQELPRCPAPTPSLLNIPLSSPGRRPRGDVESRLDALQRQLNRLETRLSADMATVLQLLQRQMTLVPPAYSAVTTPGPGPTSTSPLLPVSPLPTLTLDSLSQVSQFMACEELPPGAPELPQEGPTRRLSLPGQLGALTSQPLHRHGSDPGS

Q: With CCOc1ccc(CNC(=O)NS(=O)(=O)c2ccc(OC)cc2)cc1 as the molecule, how does the “hERG current change (%, negative = inhibition) at 10uM” value read?
A: 24.5%

Q: Which “hERG current change (%, negative = inhibition) at 10uM” value does the source give for O=C(CCc1ccccc1)Nc1cccc([N+](=O)[O-])c1 here?
A: -20%

Q: How did the “hERG current change (%, negative = inhibition) at 10uM” value turn out when CC(C)Sc1nc(N2CCOCC2)c2c(c1C#N)CC(C)(C)N(C)C2 was run?
A: -25.5%

Q: Which “hERG current change (%, negative = inhibition) at 10uM” value does the source give for COc1ccccc1-c1c(C)nn2c(N3CCC4(CC3)OCCO4)cc(C)nc12 here?
A: 7.78%

Q: Which “hERG current change (%, negative = inhibition) at 10uM” value does the source give for O=C(Nc1cccc(-c2cn3c(n2)SCC3)c1)c1ccc2ccccc2n1 here?
A: 44.5%

Q: How did the “hERG current change (%, negative = inhibition) at 10uM” value turn out when O=C(O)c1ccccc1C(=O)c1ccc2c(c1)N(Cc1ccc(Cl)c(Cl)c1)C(=O)CO2 was run?
A: 6.25%

Q: CCc1nc(OCc2ccccc2)c2sc3nc4c(cc3c2n1)COC(C)(C)C4 was tested. Which “hERG current change (%, negative = inhibition) at 10uM” value did it give?
A: -1.33%

Q: How did the “hERG current change (%, negative = inhibition) at 10uM” value turn out when Cc1cc(=O)oc2cc(OCc3ccc(C(=O)OCC(=O)NC4CCS(=O)(=O)C4)cc3)ccc12 (stereo not shown) was run?
A: 0.112%

Q: For O=C(CCNC(=O)Cn1ccc2ccccc2c1=O)NCCN1CCc2ccccc2C1, which “hERG current change (%, negative = inhibition) at 10uM” value is on record?
A: 4.01%

Q: Which “hERG current change (%, negative = inhibition) at 10uM” value does the source give for O=C(CSc1nnnn1Cc1ccccc1)N1CCN(c2ccccc2)CC1 here?
A: -44.1%

Q: How did the “hERG current change (%, negative = inhibition) at 10uM” value turn out when O=C(COc1ccc(-c2ccccc2)cc1)NNC(=O)Nc1ccccc1 was run?
A: -2.73%

Q: CC1(C)OC(C)(C)/C(=C\c2ccccc2[N+](=O)[O-])C1=O was tested. Which “hERG current change (%, negative = inhibition) at 10uM” value did it give?
A: -0.461%

Q: For COc1ccc(C2=NS(=O)(=O)N(C)C(C(=O)N3CCCCC3)=C2)cc1OC, which “hERG current change (%, negative = inhibition) at 10uM” value is on record?
A: -4.54%

Q: CC(=O)Nc1ccc(C(=O)NNC(=O)C2C3CCCCC32)cc1 (stereo not shown) was tested. Which “hERG current change (%, negative = inhibition) at 10uM” value did it give?
A: -0.576%

Q: With CCCCn1c(N)c(N(CCC(C)C)C(=O)c2ccc3c(c2)OCCO3)c(=O)[nH]c1=O as the molecule, how does the “hERG current change (%, negative = inhibition) at 10uM” value read?
A: 15.1%

Q: With CCn1cc(CNC(=O)CSc2nc(-c3ccc(OC)c(OC)c3)cc(C(F)(F)F)n2)c(C)n1 as the molecule, how does the “hERG current change (%, negative = inhibition) at 10uM” value read?
A: 0.558%

Q: For CC1CC(C)CN(C(=O)c2ccc(N3CC4CC(C3)c3cccc(=O)n3C4)c([N+](=O)[O-])c2)C1 (stereo not shown), which “hERG current change (%, negative = inhibition) at 10uM” value is on record?
A: -16%

Q: For Cc1ccc(C)c(NC(=O)C(OC(=O)c2ccc(C)s2)c2ccccc2)c1 (stereo not shown), which “hERG current change (%, negative = inhibition) at 10uM” value is on record?
A: -1.37%

Q: With O=[N+]([O-])c1ccc(OCc2nnc(-c3ccccc3)o2)cc1 as the molecule, how does the “hERG current change (%, negative = inhibition) at 10uM” value read?
A: 5.73%

Q: With Oc1ccc(Br)cc1/C=N/Nc1ccccn1 as the molecule, how does the “hERG current change (%, negative = inhibition) at 10uM” value read?
A: 18%

Q: With Cc1cc(OCC(=O)Nc2ccccn2)c2c(C)cc(=O)oc2c1 as the molecule, how does the “hERG current change (%, negative = inhibition) at 10uM” value read?
A: 10.5%

Q: With O=C(CCSc1nc2ccccc2o1)N1CCOCC1 as the molecule, how does the “hERG current change (%, negative = inhibition) at 10uM” value read?
A: 3.17%

Q: How did the “hERG current change (%, negative = inhibition) at 10uM” value turn out when O=C(CC(c1ccccc1)c1ccccc1)Nc1ccc(O)cc1 was run?
A: 11.5%

Q: For O=C(COc1cccc2ccccc12)NNC(=O)[C@@H]1CCCC[C@@H]1C(=O)O, which “hERG current change (%, negative = inhibition) at 10uM” value is on record?
A: 19.1%

Q: N#CC1=C(N)OC2=C(C(=O)CCC2)C1c1ccncc1 (stereo not shown) was tested. Which “hERG current change (%, negative = inhibition) at 10uM” value did it give?
A: 3.89%

Q: Which “hERG current change (%, negative = inhibition) at 10uM” value does the source give for CCOC(=O)C(Cc1ccccc1)C(=O)Nc1ccc(N(CC)CC)cc1 (stereo not shown) here?
A: 2.88%

Q: How did the “hERG current change (%, negative = inhibition) at 10uM” value turn out when CCCN=Cc1ccc(O)cc1 was run?
A: 13.7%

Q: How did the “hERG current change (%, negative = inhibition) at 10uM” value turn out when CC(OC(=O)C1CC(=O)N(Cc2ccccc2)C1)C(=O)Nc1ccccc1[N+](=O)[O-] (stereo not shown) was run?
A: -20%

Q: With CCOC(=O)N1CCC(N2Cc3cccc(C(=O)N4CC(C)CC(C)C4)c3C2=O)CC1 (stereo not shown) as the molecule, how does the “hERG current change (%, negative = inhibition) at 10uM” value read?
A: 6.31%

Q: Which “hERG current change (%, negative = inhibition) at 10uM” value does the source give for O=C(CSCc1ccccc1)N1CCN(c2ccc(F)cc2)CC1 here?
A: -16.1%

Q: For CCn1c(C(C)NC(=O)c2ccccc2C)n[nH]c1=S (stereo not shown), which “hERG current change (%, negative = inhibition) at 10uM” value is on record?
A: 10.8%

Q: Which “hERG current change (%, negative = inhibition) at 10uM” value does the source give for CCCCCCSc1nc(O)c(C2OC(=O)c3c2ccc(OC)c3OC)c(=O)n1-c1ccccc1 (stereo not shown) here?
A: 16.8%

Q: How did the “hERG current change (%, negative = inhibition) at 10uM” value turn out when O=C(Nc1sc2c(c1C(=O)NC1CC1)CCCCCC2)c1ccco1 was run?
A: -9.32%

Q: How did the “hERG current change (%, negative = inhibition) at 10uM” value turn out when Cc1cccc(C)c1NC(=O)C(c1cccs1)N(Cc1ccco1)C(=O)Cn1nnc2ccccc21 (stereo not shown) was run?
A: 14.4%

Q: Which “hERG current change (%, negative = inhibition) at 10uM” value does the source give for Cc1cc(NC(=O)c2cccc(S(=O)(=O)N3CCCCCC3)c2)no1 here?
A: 11.7%

Q: With CC(=O)Nc1ccc(C(=O)N/N=C/c2ccncc2)cc1 as the molecule, how does the “hERG current change (%, negative = inhibition) at 10uM” value read?
A: 0.536%

Q: Which “hERG current change (%, negative = inhibition) at 10uM” value does the source give for COc1ccc(-n2c(SCC(=O)NCC3CCCO3)nc3c(c2=O)SC(C)C3)cc1 (stereo not shown) here?
A: -25.9%

Q: With O=C1OCCC1Sc1nc2ccccc2c(=O)n1-c1ccc(F)cc1 (stereo not shown) as the molecule, how does the “hERG current change (%, negative = inhibition) at 10uM” value read?
A: 8.7%

Q: How did the “hERG current change (%, negative = inhibition) at 10uM” value turn out when O=C(NCCN1CCCCC1)c1cc(OCC(F)(F)F)ccc1OCC(F)(F)F was run?
A: -39.5%

Q: Which “hERG current change (%, negative = inhibition) at 10uM” value does the source give for Cc1ccc(/C=C(\NC(=O)c2ccccc2)C(=O)NCC2CCCO2)o1 (stereo not shown) here?
A: -5.4%

Q: COC(=O)C1C(O)=C(C=Nc2cccc3ccccc23)C(=O)CC1(C)C (stereo not shown) was tested. Which “hERG current change (%, negative = inhibition) at 10uM” value did it give?
A: -2.34%

Q: With Cc1nn(-c2ccccc2)c(C)c1/C=C/C(=O)OCC(=O)N(C)C1CCS(=O)(=O)C1 (stereo not shown) as the molecule, how does the “hERG current change (%, negative = inhibition) at 10uM” value read?
A: 4.46%

Q: How did the “hERG current change (%, negative = inhibition) at 10uM” value turn out when CC(C)(O)C(=O)NNC(=S)Nc1cccc(C(F)(F)F)c1 was run?
A: 19.7%
